Experimental data from PubChem BioAssay AID624418 (National Center for Advancing Translational Sciences (NCATS), 2012).
The campaign covered roughly 410,000 compounds. About 530 (0.13%) were called active. This list was built around the results that the source calls inconclusive (neither active nor inactive); the mix of calls is not that of the screen. Calls come from the whole dose curve; as a rule, active = well fitted inhibition curve with a large enough effect; inconclusive = small, poorly fitted or top-dose-only effect, or another doubt; inactive = no such curve, though single readings can be large or run the other way. Where the call is inconclusive, the potency comes from a doubtful curve fit.

Test: qHTS of GLP-1 Receptor Inverse Agonists: Cytotox Screen
Conditions: HEK293 cAMP-luciferase reporter cells, luminescence, 24 h; activity change, negative = inhibition: at 38.3 µM (top of the series) unless noted
Outline: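 Luminescence readout: signal drop marks cytotoxicity. Plated cells grew 12 h at 37 °C, 5% CO2, received 23 nL compound for 24 h, then got luciferase reagent, read after 12 min at RT.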
% is set by controls: 0 for no effect and ±100 for the full control effect; potency is the fitted concentration of half-maximal effect.

Structure (SMILES) | activity change, negative = inhibition | Potency
COc1ccc(CCCc2nnc(SCC(=O)Nc3ccc(F)cc3)o2)cc1C | inactive: -0.18% | –
Cc1ccc2cccc(NC(=O)c3ccc(-c4cccc(Cl)c4Cl)o3)c2n1 | inactive: 10.6% | –
COc1ccc(NC(=O)C(Cc2ccccc2)NS(=O)(=O)c2ccc3c(c2)CCN3C(C)=O)cc1 (configuration not stated) | inactive: 3.55% | –
Cc1ccc(N(C)S(=O)(=O)c2nnc(NC(=O)CC(C)C)s2)cc1 | inactive: -9.19% | –
CC(C)(C)[C@@H]1COC(=O)[C@H](Cc2ccc(F)cc2)CC/C=C\C[C@H](CC(=O)N(CCO)Cc2ccccc2)C(=O)N1 | – | inconclusive: 11.2 µM [inhibitor, partial curve, poor fit]
Cc1cc(C)c2nc(N3CCC(C(=O)NCCCN4CCCCC4)CC3)sc2c1 | – | inconclusive: 10 µM [inhibitor, partial curve, poor fit]
Cc1ccc(C)c(CNC(=O)c2ccc3c(c2)nc2n3CCC(C)C2)c1 (configuration not stated) | inactive: -11.9% | –
CCCn1c(=N)c(C(=O)NCc2cccnc2)cc2c(=O)n3ccccc3nc21 | inactive: 174% | –
COc1ccc(-n2cc(C(=O)Nc3cc(F)ccc3F)c3ccccc3c2=O)cc1 | inactive: 2.44% | –
COc1ccc(C(=O)NC(=S)Nc2ccc(N3CCOCC3)cc2)cc1Cl | – | inconclusive: 28.2 µM [inhibitor, single point]
CCNC(=S)NN=C1c2ccccc2-c2ccccc21 | – | inconclusive: 2.51 µM [inhibitor, partial curve, poor fit]
O=C(OCn1ncc(Cl)c(Cl)c1=O)c1ccc(C(F)(F)F)cc1 | inactive: -17.9% | –
C/C(=N\NC(=S)NCc1ccccc1)c1ccco1 | – | inconclusive: 8.91 µM [inhibitor, partial curve, poor fit]
Cc1ccc(C)c(NC2=C(Cl)C(=O)OC2OC(=O)c2ccco2)c1 (configuration not stated) | – | inconclusive: 11.2 µM [inhibitor, single point]
Cc1ccc(-c2c(C(=O)N/N=C/c3ccc4c(c3)OCO4)nnn2-c2nonc2N)cc1 | – | inconclusive: 10 µM [inhibitor, single point]
CC(=O)Nc1nc(C)c(-c2csc(Nc3ccc(O)cc3)n2)s1 | – | inconclusive: 28.2 µM [inhibitor, single point]
Cc1[nH]cnc1CSCc1ccc(F)cc1 | – | inconclusive: 28.2 µM [inhibitor, single point]
O=c1cc(-c2ccccc2)[nH][nH]1 | inactive: 26% | –
COC(=O)C1=C(C)N(Cc2ccccc2)C(=NCCc2c[nH]c3ccccc23)N[C@H]1c1cccc(C(F)(F)F)c1 | – | inconclusive: 28.2 µM [inhibitor, single point]
C=CCn1c(-c2csc3ccccc23)n[nH]c1=S | – | inconclusive: 28.2 µM [inhibitor, single point]
CCNC(=O)/C(C#N)=C/c1c(N(Cc2ccccc2)Cc2ccccc2)nc2ccccn2c1=O | – | inconclusive: 14.1 µM [inhibitor, single point]
COc1c(O)c(O)c2oc(-c3ccccc3)cc(=O)c2c1OC | inactive: 24.8% | –
c1ccc(-c2nc(N3CCN(c4ccccc4)CC3)nc(-n3ccnc3)n2)cc1 | – | inconclusive: 22.4 µM [inhibitor, single point]

Structure (SMILES) | activity change, negative = inhibition | Potency
CCC(C)(C)n1nnnc1C(c1cc2ccc(OC)cc2[nH]c1=O)N1CCN(C2CCCCC2)CC1 (configuration not stated) | inactive: -25.2% | –
CN1/C(=C\C(=O)CSc2nnc(NCc3ccccc3)s2)C(C)(C)c2ccccc21 | – | inconclusive: 28.2 µM [inhibitor, single point]
O=C1OC(c2ccccc2)(c2ccc(O)cc2)c2ccccc21 (configuration not stated) | inactive: -2.56% | –
CCCCCc1c(-c2ccc(F)cc2)ncn1CCc1ccccc1OC | – | inconclusive: 14.1 µM [inhibitor, partial curve, poor fit]
Cc1ccc(C(C)C)c(OCC(=O)NN=C2CCCCCCC2)c1 | – | inconclusive: 10 µM [inhibitor, single point]
Oc1ccc(C[C@H]2CNC(=S)N2C[C@H]2CCCN2C[C@H](Cc2ccccc2)N2C[C@H](Cc3ccc(O)cc3)N(CC3CCCCCC3)C2=S)cc1 | – | inconclusive: 11.2 µM [inhibitor, single point]
CCOc1cc(NC(=S)Nc2cccc(OC)c2)c(OCC)cc1NC(=O)C(C)C | inactive: 11.2% | –
O=c1ccsn1Cc1ccccc1 | – | inconclusive: 2.51 µM [inhibitor, full curve, poor fit]
O=C(N[C@@H]1C/C=C\C[C@@H](CC(=O)N(CCO)Cc2ccccc2)C(=O)N[C@@H](c2ccccc2)COC1=O)OCC1c2ccccc2-c2ccccc21 | – | inconclusive: 11.2 µM [inhibitor, partial curve, poor fit]
Cc1cc(OCC(=O)Nc2c(C(=O)c3ccccc3)oc3ccccc23)cc(C)c1Cl | inactive: 13.9% | –
CCC(C)c1ccc(N(C(=O)c2ccco2)C(C(=O)NC2CCCC2)c2cccnc2)cc1 (configuration not stated) | – | inconclusive: 6.31 µM [inhibitor, partial curve, poor fit]
COc1cc(NC(=S)NC(=O)CCc2ccccc2)cc(OC)c1 | – | inconclusive: 22.4 µM [inhibitor, single point]
Cc1cc(NC(=O)CCS(=O)(=O)c2nc(-c3ccccc3)cc(C(F)(F)F)n2)no1 | – | inconclusive: 10 µM [inhibitor, partial curve]
COc1ccc(NC(=S)N/N=C/c2cccn2Cc2ccccc2F)cc1 | – | inconclusive: 4.47 µM [inhibitor, partial curve, poor fit]
O=C1c2cccc(Cl)c2C(=O)c2c1cccc2N1CCCC1 | – | inconclusive: 22.4 µM [inhibitor, single point]
CN(C)CCCNC(=O)/C=C/c1ccc(OCc2c(F)cccc2Cl)cc1 | – | inconclusive: 11.2 µM [inhibitor, single point]
Cc1cccc(C)c1NC(=O)Cn1nnc(C(=O)Nc2c(C)cccc2C)c1N | inactive: -15.6% | –
NC(Cc1ccc(C(F)(F)F)cc1)c1csc(Nc2ccc(C(=O)c3ccccc3)cc2)n1 (configuration not stated) | – | inconclusive: 28.2 µM [inhibitor, single point]
Cc1ccc(C(=O)NCC(=O)OCC(=O)NC(C)C2CC3CCC2C3)cc1 (configuration not stated) | inactive: 9.08% | –
c1ccc(CNc2ncnc3c2cnn3Cc2ccccc2)cc1 | – | inconclusive: 7.08 µM [inhibitor, partial curve, poor fit]
COc1ccc(NC(=O)c2oc3ccccc3c2NC(=O)Cc2coc3cc(C)ccc23)cc1 | inactive: 2% | –
N#CC1=C(SCC(=O)NC23CC4CC(CC(C4)C2)C3)NC(=O)C(C#N)C12CCCCC2 (configuration not stated) | – | inconclusive: 28.2 µM [inhibitor, single point]
COc1ccc(C(=O)CCS(=O)(=O)c2ccc(C)cc2)cc1 | – | inconclusive: 28.2 µM [inhibitor, single point]

Structure (SMILES) | activity change, negative = inhibition | Potency
COc1ccc(C2=C(C)C(=NCCCN3CCN(c4cc(Cl)ccc4C)CC3)NS2(=O)=O)cc1 | inactive: -5.09% | –
Cc1cnc(NC(=O)CCCc2nc3ccccc3s2)s1 | – | inconclusive: 2.51 µM [inhibitor, full curve, poor fit]
COc1ccc(C(CNC(=O)c2cc(S(=O)(=O)Nc3cccc(C)c3)ccc2C)N2CCCC2)cc1 (configuration not stated) | – | inconclusive: 28.2 µM [inhibitor, single point]
COc1ccc(-c2cn3c(n2)sc2cc(C(=O)Nc4cccc(SC)c4)ccc23)cc1 | inactive: -3.2% | –
CCNC(=S)N(CCc1c(C)[nH]c2ccc(Cl)cc12)Cc1ccco1 | – | inconclusive: 11.2 µM [inhibitor, single point]
Cc1ccc(N=Nc2ccc(O)c(/C=N\NC(=O)c3ccc(N)cc3)c2)cc1C | – | inconclusive: 5.01 µM [inhibitor, full curve]
COc1ccc(NC(=O)NCCN2CCN(c3cccc(Cl)c3)CC2)cc1 | – | inconclusive: 0.282 µM [inhibitor, full curve, poor fit]
CCCNC(=O)Cn1c(=O)/c(=C\c2ccc(-c3ccc([N+](=O)[O-])cc3)o2)s/c1=C\C(=O)C(C)(C)C | inactive: 5.62% | –
Cc1ccc(NC(=O)c2cc(N3C(=O)C=CC3=O)ccc2N2CCOCC2)cc1 | – | inconclusive: 28.2 µM [inhibitor, single point]
CCCOc1ccc(CNC(=O)c2ccc3c(c2)N(Cc2ccccc2)CCS3)cc1 | inactive: 0.204% | –
O=C(Cc1cccc2ccccc12)N1CC[C@@]2(O)CCCC[C@H]2C1 | – | inconclusive: 28.2 µM [inhibitor, single point]
O=C1C=C(O)c2c(O)cc(O)c(O)c2C1=O | – | inconclusive: 10 µM [inhibitor, partial curve, poor fit]
Cc1ccc(Sc2cnn(-c3ccccc3)c(=O)c2Cl)cc1 | – | inconclusive: 28.2 µM [inhibitor, single point]
Cc1ccc(CNCC(O)(c2ccccc2)c2ccc(Cl)cc2)cc1 (configuration not stated) | – | inconclusive: 28.2 µM [inhibitor, single point]
COc1cccc(CNC(=O)c2cccc(NC(=O)CC3SC(N4CCCCC4)=NC3=O)c2)c1 (configuration not stated) | – | inconclusive: 14.1 µM [inhibitor, single point]
O=C1OCC=C1NNC(=O)c1cccnc1 | inactive: 6.97% | –
N#C/C(=C(/O)COC(=O)COc1ccc(Cl)cc1)c1nc2ccccc2[nH]1 | – | inconclusive: 3.98 µM [inhibitor, partial curve]
CC(=NNC(=S)Nc1cccc(Cl)c1)c1ccccn1 | – | inconclusive: 0.501 µM [inhibitor, full curve, poor fit]
CNC(C)C#Cc1ccc2oc3cccc(OC)c3c(=O)c2c1 (configuration not stated) | – | inconclusive: 2.24 µM [inhibitor, full curve, poor fit]
Cc1ccc(C(=O)N2CCc3ccccc32)cc1 | inactive: 1.88% | –
CCNC(=S)N/N=C/c1cccc(OCc2c(F)cccc2Cl)c1 | – | inconclusive: 22.4 µM [inhibitor, partial curve, poor fit]
